# In PubChem BioAssay AID1460 (National Center for Advancing Translational Sciences (NCATS), 2008):
# Hit rate of the full screen: of about 270,000 compounds, about 5,800 (2.1%) were called active. Inconclusive results, whose numbers are uncertain, are shown with a selection of clear calls. Calls come from the whole dose curve; as a rule, active = well fitted inhibition curve with a large enough effect; inconclusive = small, poorly fitted or top-dose-only effect; inactive = flat fitted curve, though single readings scatter. Where the call is inconclusive, the potency comes from a doubtful curve fit.
# Target: Microtubule-associated protein tau (Homo sapiens) (UniProt P10636)
# Chain of UniProt P10636 (P10636 whole entry, looked up): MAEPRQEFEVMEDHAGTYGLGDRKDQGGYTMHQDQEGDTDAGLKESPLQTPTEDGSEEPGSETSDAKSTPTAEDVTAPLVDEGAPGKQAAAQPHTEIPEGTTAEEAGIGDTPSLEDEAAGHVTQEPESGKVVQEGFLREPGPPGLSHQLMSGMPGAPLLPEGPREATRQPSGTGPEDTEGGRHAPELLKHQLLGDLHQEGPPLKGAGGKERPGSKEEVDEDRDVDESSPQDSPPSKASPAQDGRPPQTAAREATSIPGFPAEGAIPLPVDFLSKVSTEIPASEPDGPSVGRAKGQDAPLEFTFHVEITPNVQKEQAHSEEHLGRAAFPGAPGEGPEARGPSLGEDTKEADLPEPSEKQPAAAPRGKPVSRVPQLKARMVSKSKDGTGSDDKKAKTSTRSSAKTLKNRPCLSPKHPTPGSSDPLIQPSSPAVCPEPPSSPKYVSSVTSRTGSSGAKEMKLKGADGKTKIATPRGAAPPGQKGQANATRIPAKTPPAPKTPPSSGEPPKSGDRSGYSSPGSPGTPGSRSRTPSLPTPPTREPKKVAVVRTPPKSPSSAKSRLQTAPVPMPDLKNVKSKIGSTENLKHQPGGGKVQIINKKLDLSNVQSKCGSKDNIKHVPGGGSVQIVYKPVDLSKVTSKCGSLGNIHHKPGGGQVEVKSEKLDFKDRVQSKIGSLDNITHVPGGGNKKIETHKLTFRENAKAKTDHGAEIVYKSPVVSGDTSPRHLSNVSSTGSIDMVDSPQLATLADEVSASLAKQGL
# Assay: qHTS for Inhibitors of Tau Fibril Formation, Thioflavin T Binding; note: nearly all actives have a fitted effect of over 55% in size
# Conditions: recombinant tau K18 P301L (four-repeat tau fragment), heparin-induced fibrillization, ThT fluorescence; series mostly up to 57.4 µM; activity, negative = inhibition: at the top concentration
# Summary of the method: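 Heparin-induced fibrillization of the P301L-mutant K18 repeat-domain fragment of human tau was followed by ThT binding in quantitative high-throughput format.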
# % is set by controls: 0 for no effect and ±100 for the full control effect; potency is the fitted concentration of half-maximal effect; tags give direction and shape of the fitted curve.
SMILES,Potency,"activity, negative = inhibition"
Cc1ccc(O)c(-c2cc(-c3ccccc3F)[nH]n2)c1,"inconclusive: 1.41 µM [inhibitor, full curve, poor fit]",
CCCCCOc1ccc(/C=C/C(=O)Nc2sc(C)c(C)c2C(=O)OCC)cc1OC,active: 28.2 µM,
CC(C)(C)C1CCc2c(sc(NC(=O)c3cc4ccccc4c(=O)o3)c2C(N)=O)C1 (stereo not given),"inconclusive: 12.6 µM [inhibitor, partial curve]",
COc1ccccc1NC(=O)CN1CCN(CC(=O)Nc2ccc(Cl)c(C(F)(F)F)c2)CC1,,inactive: -5.8%
Cc1ccc(C(=O)NC(=S)Nc2ccc(N3CCOCC3)cc2)cc1,"inconclusive: 4.47 µM [inhibitor, full curve]",
CCOc1ccc(/C=N/Nc2ccccn2)cc1,"inconclusive: 1.41 µM [inhibitor, partial curve]",
CN1C(=O)c2ccc(C(=O)NC3CCCCC3)cc2C1=O,,inactive: -9.42%
COc1ccc(NC(=O)c2ccc(-n3cccn3)c([N+](=O)[O-])c2)cc1,"inconclusive: 28.2 µM [inhibitor, partial curve]",
COc1cc(Br)cc(/C=N/c2ncn[nH]2)c1O,active: 14.1 µM,
Cc1cccc(N(C)c2nc3ccc(C(=O)c4ccccc4)cc3n3c(C)nnc23)c1,"inconclusive: 5.62 µM [inhibitor, partial curve]",
CCc1ccc(-n2c(SCc3c(C)noc3C)nnc2-c2ccncc2)cc1,,inactive: -14.8%
Cc1ccc(OCC(=O)c2ccc(Cl)s2)c([N+](=O)[O-])n1,active: 14.1 µM,
Cc1scc(C(=O)N2CCN(c3ccc(Cl)cc3)CC2)c1C,,inactive: 4.97%
CCCCC[C@H](O)/C=C/[C@@H]1[C@H](C/C=C\CCCC(=O)O)[C@@H](O)C[C@H]1O,inactive,
CCN(CC)c1nc2ccccc2nc1C(=O)Nc1ccc(C(C)=O)cc1,"inconclusive: 35.5 µM [inhibitor, partial curve, poor fit]",
COc1ccc(Cc2nc3ccc(C(=O)NCc4ccccc4C)cc3o2)cc1,,inactive: -12.9%
COc1ccc(NC(=O)CN2C(=O)CC(c3ccc(C)c(C)c3)=Nc3ccccc32)cc1OC,"inconclusive: 35.5 µM [inhibitor, single point]",
Cc1ccccc1Oc1nc2ccccn2c(=O)c1/C=C(\C#N)c1nc2ccccc2[nH]1,"inconclusive: 28.2 µM [inhibitor, single point]",
COc1ccccc1NC(=S)NC(=O)/C=C/c1cccs1,"inconclusive: 22.4 µM [inhibitor, partial curve]",
CC(C)CCOP(=O)(c1ccc(N(C)C)cc1)C(O)c1ccccn1 (stereo not given),,inactive: -4.55%
O=C(CCCc1nc(-c2ccccc2)no1)Nc1cccnc1,,inactive: -19%
O=C(O)c1ccc(CSc2nc3ccc(NC(=O)c4ccccc4C(=O)O)cc3s2)cc1,"inconclusive: 17.8 µM [inhibitor, partial curve, poor fit]",
COc1ccc(OCC(=O)Nc2ccc3oc(-c4ccncc4)nc3c2)cc1,"inconclusive: 0.708 µM [inhibitor, full curve]",
CCOc1cccc(C(=O)c2ccc(O)c(O)c2O)c1,active: 22.4 µM,

SMILES,Potency,"activity, negative = inhibition"
C/C(=N\Nc1ccc([N+](=O)[O-])cc1)c1ccc(-n2nncc2C(C)(C)C)cc1,"inconclusive: 2.51 µM [inhibitor, partial curve, poor fit]",
Cc1nn(C(=O)c2cccnc2)c(C)c1Sc1ccccc1,"inconclusive: 15.8 µM [inhibitor, partial curve]",
COc1ccc(OCC(=O)Nc2ccc3nc(C)sc3c2)cc1,"inconclusive: 11.2 µM [inhibitor, partial curve, poor fit]",
Cc1ccc(NC(=O)CSc2nc(=O)n(Cc3cccnc3)c3c2CCC3)cc1F,,inactive: -5.7%
O=c1c(/C=C(\O)c2ccc(F)cc2)nc2ccccc2n1-c1ccccc1,"inconclusive: 12.6 µM [inhibitor, partial curve]",
CCOC(=O)Cc1cnc(NC(=O)CSc2nc(N)cc(=O)[nH]2)s1,,inactive: 10.6%
Cc1ccc2c(COC(=O)CC3Sc4ccccc4NC3=O)cc(=O)oc2c1C (stereo not given),"inconclusive: 0.631 µM [inhibitor, full curve, poor fit]",
CC(=O)Oc1ccc(N2C(=O)C3C(C2=O)C(C(=O)c2ccc(Cl)cc2)N2CCCC32)cc1 (stereo not given),active: 35.5 µM,
Cc1ccccc1OCC(=O)Nc1ccc(-c2nc3ccccc3o2)cc1,"inconclusive: 3.16 µM [inhibitor, partial curve]",
CC1=C(C(=O)OCc2ccccc2)C(C2CC2)NC(=O)N1CCCCCC(=O)O (stereo not given),"inconclusive: 31.6 µM [inhibitor, single point]",
Cc1nc2c(N=Nc3ccccc3F)c(N)nn2c(N)c1C#N,"inconclusive: 1.78 µM [inhibitor, full curve]",
O=C(OC1CCN(c2ncc(C(F)(F)F)cc2Cl)CC1)c1ccc(Cl)cc1,,inactive: -18.5%
COc1ccc(C(=O)N/N=C/c2ccc(OC(=O)c3ccccc3)cc2)cc1,"inconclusive: 0.398 µM [inhibitor, full curve]",
O=S(=O)([N-]c1nc2ccccc2nc1-[n+]1ccc(Cc2ccccc2)cc1)c1ccc(Br)s1,"inconclusive: 17.8 µM [inhibitor, partial curve]",
COc1ccc(NC(=O)[C@H]2O[C@@H]3OC(C)(C)O[C@@H]3[C@H]3OC(C)(C)O[C@H]32)c(OC)c1,,inactive: 1.11%
Cc1cccc(NC(=O)c2ccc(NCCc3ccccc3)c([N+](=O)[O-])c2)c1,,inactive: -11.2%
Cc1ccc2nc(-c3cccs3)c(Nc3c(C)cccc3C)n2c1,,inactive: -16.2%
COc1ccc(NC(=O)c2cccc(C(=O)Nc3ccc(OC)cc3)n2)cc1,,inactive: 0.433%
CN(C)c1ccc(/C=C/c2nc(-c3ccccc3O)n(-c3ccccc3)n2)cc1,"inconclusive: 3.98 µM [inhibitor, full curve]",
O=C1CC(c2cccs2)Cc2nc(NC(=O)C3CC3)ncc21 (stereo not given),,inactive: -15.6%
Cc1ccc(C)n1-c1ccc(C(=O)N2CCOCC2)cc1,"inconclusive: 35.5 µM [inhibitor, single point]",
Cc1ccc(NC(=S)NC2CCN(Cc3ccccc3)CC2)cc1,,inactive: -0.142%
COc1ccc2oc(-c3ccco3)cc(=O)c2c1,"inconclusive: 20 µM [inhibitor, partial curve]",
COc1ccccc1C(=O)N/N=C(\C)c1ccc(NC(=O)C2CC2)cc1,"inconclusive: 0.251 µM [inhibitor, full curve, poor fit]",

SMILES,Potency,"activity, negative = inhibition"
Cc1cc(C)c(OCC(=O)N(Cc2ccc(N(C)C)cc2)Cc2ccco2)c(C)c1,"inconclusive: 7.94 µM [inhibitor, partial curve]",
COc1ccc(CCNC(=O)c2ccc(-n3c(C)cc4c3CCC(C)C4)cc2)cc1OC (stereo not given),"inconclusive: 35.5 µM [inhibitor, single point]",
Cc1cc(C)cc(NC(=O)COc2cccc3c(=O)n(C)ccc23)c1,"inconclusive: 17.8 µM [inhibitor, single point]",
C=CCS(=O)(=O)c1nc2ccccc2s1,"inconclusive: 3.16 µM [inhibitor, full curve, poor fit]",
CCCCN(C)C(=O)c1ccc2c(=O)n3nc(Nc4cc(C)ccc4C)sc3nc2c1,,inactive: -2.01%
O=C(O)/C=C/C(=O)Nc1ccccc1C(=O)Nc1ccccc1,,inactive: -19.4%
CC(C)(C)c1ccc(CN2N=Nc3ccccc3S2(=O)=O)cc1,"inconclusive: 14.1 µM [inhibitor, partial curve]",
O=C(COC(=O)c1cc(-c2ccco2)nc2ccccc12)NCc1ccccc1,"inconclusive: 22.4 µM [inhibitor, partial curve]",
Cc1c(Cl)cccc1NC(=O)C(=O)NCCc1csc(-c2ccc(C(F)(F)F)cc2)n1,,inactive: -14%
O=c1cc(CSc2nnnn2-c2ccccc2)[nH]c2[nH]n(-c3ccccc3)c(=O)c12,"inconclusive: 14.1 µM [inhibitor, partial curve]",
O=[N+]([O-])c1ccc2c(c1)c1ccccc1n2CCO,"inconclusive: 25.1 µM [inhibitor, partial curve]",
CCCc1[nH]nc2c1C(c1ccncc1)C(C#N)=C(N)O2 (stereo not given),"inconclusive: 39.8 µM [inhibitor, single point]",
COc1ccc(C(=O)Nc2ccc3oc(-c4cccc5c(Br)cccc45)nc3c2)cc1,"inconclusive: 1.12 µM [inhibitor, full curve, poor fit]",
Cc1ccc(S(=O)(=O)ON2C(=O)c3ccccc3C2=O)c(C)c1,active: 17.8 µM,
CC1CC(C)CN(CC(=O)N2CCCc3c2c(=O)oc2ccc(OCc4ccccc4)cc32)C1 (stereo not given),"inconclusive: 28.2 µM [inhibitor, single point]",
Oc1ccc(/C=N/NC2=NCCCCC2)cc1,,inactive: -2.18%
COc1cccc(/C=c2\s/c(=C/C(=O)c3ccc(C)cc3)[nH]c2=O)c1OC,"inconclusive: 2 µM [inhibitor, full curve]",
Cc1ccc(OCC(=O)N/N=C\c2c(C)[nH]n(-c3ccccc3)c2=O)c([N+](=O)[O-])c1,"inconclusive: 14.1 µM [inhibitor, partial curve]",
CCS(=O)(=O)c1cc([N+](=O)[O-])c(Sc2ccccc2N)s1,active: 10 µM,
COc1ccc(NC(=S)N/N=C2/CCCc3c(C)cc(C)cc32)cc1,"inconclusive: 5.62 µM [inhibitor, partial curve]",
Cc1ccc(CN2CCc3c(OCC(=O)Nc4cc(C)ccc4C)cccc3C2=O)cc1,"inconclusive: 5.01 µM [inhibitor, full curve, poor fit]",
CC#CCN1c2ccccc2[C@]23C[C@@H](C(=O)OC)N(S(=O)(=O)c4ccc(C(F)(F)F)cc4)C2=NC(C(=O)OC)=C(C(=O)OC)[C@H]13,,inactive: 1.39% [at 11.5 µM]
